The source of these data is patent publication US7592316B2, “Peptides as NS3-serine protease inhibitors of hepatitis C virus” (Schering Corporation, priority 2000, dated 2009).

For the assay, the target named is HCV NS3/NS4A protease (strain 1a) (Hepatitis C virus genotype 1a, UniProt P27958). Nature of the assay: biochemical. The following applies: Table 5; HCV NS3/NS4A protease, 30° C., pH 6.5; read-out: Ki* Range. On the procedure:
Assay for HCV Protease Inhibitory Activity:
Spectrophotometric Assay Spectrophotometric assay for the HCV serine protease was performed on the inventive compounds by following the procedure described by R. Zhang et al, Analytical Biochemistry, 270 (1999) 268-275, the disclosure of which is incorporated herein by reference. The assay based on the proteolysis of chromogenic ester substrates is suitable for the continuous monitoring of HCV NS3 protease activity. The substrates were derived from the P side of the NS5A-NS5B junction sequence (Ac-DTEDWX(Nva), where X=A or chromophoric alcohols (3- or 4-nitrophenol, 7-hydroxy-4-methyl-coumarin, or 4-phenylazophenol). Presented below are the synthesis, characterization and application of these novel spectrophotometric ester substrates to high throughput screening and detailed kinetic evaluation of HCV NS3 protease inhibitors.
Protein concentrations were determined by the Biorad dye method using recombinant HCV protease standards previously quantified by amino acid analysis. Prior to assay initiation, the enzyme storage buffer (50 mM sodium phosphate pH 8.0, 300 mM NaCl, 10% glycerol, 0.05% lauryl maltoside and 10 mM DTT) was exchanged for the assay buffer (25 mM MOPS pH 6.5, 300 mM NaCl, 10% glycerol, 0.05% lauryl maltoside, 5 μM EDTA and 5 μM DTT) utilizing a Biorad Bio-Spin P-6 prepacked column.
Protease Assay: HCV protease assays were performed at 30° C. using a 200 μl reaction mix in a 96-well microtiter plate. Assay buffer conditions (25 mM MOPS pH 6.5, 300 mM NaCl, 10% glycerol, 0.05% lauryl maltoside, 5 μM EDTA and 5 μM DTT) were optimized for the NS3/NS4A heterodimer (D. L. SalI et al, ibid.)). […] Fifty μls of prewarmed protease (12 nM, 30° C.) in assay buffer, was then used to initiate the reaction (final volume 200 μl). The plates were monitored over the length of the assay (60 minutes) for change in absorbance at the appropriate wavelength (340 nm for 3-Np and HMC, 370 nm for PAP, and 400 nm for 4-Np) using a Spectromax Plus microtiter plate reader equipped with a monochrometer (acceptable results can be obtained with plate readers that utilize cutoff filters). Proteolytic cleavage of the ester linkage between the Nva and the chromophore was monitored at the appropriate wavelength against a no enzyme blank as a control for non-enzymatic hydrolysis. The evaluation of substrate kinetic parameters was performed over a 30-fold substrate concentration range (˜6-200 μM). Initial velocities were determined using linear regression and kinetic constants were obtained by fitting the data to the Michaelis-Menten equation using non-linear regression analysis (Mac Curve Fit 1.1, K. Raner). Turnover numbers (kcat) were calculated assuming the enzyme was fully active.
The resulting data were fitted using linear regression and the resulting slope, 1/(Ki*(1+[S] o/Km), was used to calculate the Ki* value.
In the case of `C=CCCNC(=O)C(=O)C(CCC=C)NC(=O)[C@@H]1[C@@H]2[C@H](CN1C(=O)[C@@H](NC(=O)NC(C)(C)C)C1Cc3ccccc3C1)C2(C)C` (some centres unmarked), the Ki (as a rule, a dissociation constant, usually derived from enzyme kinetics or from competition with a known ligand) lay within 1 to 100 nM.

As to `C=CCCC(NC(=O)[C@@H]1[C@H]2[C@@H](CN1C(=O)[C@@H](NC(=O)NC1CCCC1)C1Cc3ccccc3C1)C2(C)C)C(=O)C(=O)NCC=C` (some centres unmarked), the Ki is 101 to 1000 nM.

`C=CCCC(NC(=O)[C@@H]1[C@H]2[C@@H](CN1C(=O)[C@@H](NC(=O)NC1CCCCC1)C1Cc3ccccc3C1)C2(C)C)C(=O)C(=O)NCC=C` (some centres unmarked): the Ki is 101 to 1000 nM.

On to `C=CCCC(NC(=O)[C@@H]1[C@H]2[C@@H](CN1C(=O)[C@@H](NC(=O)NC(C)(C)CC(C)(C)C)C1Cc3ccccc3C1)C2(C)C)C(=O)C(=O)NCC=C` (some centres unmarked), for which the Ki lay in the range of 101 to 1000 nM.

`C=CCCC(NC(=O)[C@@H]1[C@H]2[C@@H](CN1C(=O)[C@@H](NC(=O)NCCC)C1Cc3ccccc3C1)C2(C)C)C(=O)C(=O)NCC=C` (some centres unmarked): the Ki lay in the range of 101 to 1000 nM.

For `C=CCCC(NC(=O)[C@@H]1[C@H]2[C@@H](CN1C(=O)[C@@H](NC(=O)NCC=C)C1Cc3ccccc3C1)C2(C)C)C(=O)C(=O)NCC=C` (some centres unmarked), the Ki was in the range of 101 to 1000 nM.

On to `C=CCCC(NC(=O)[C@@H]1[C@H]2[C@@H](CN1C(=O)[C@@H](NC(=O)NS(=O)(=O)c1ccccc1)C1Cc3ccccc3C1)C2(C)C)C(=O)C(=O)NCC=C` (some centres unmarked), for which the Ki lay within 101 to 1000 nM.

For the compound `C=CCCC(NC(=O)[C@@H]1[C@H]2[C@@H](CN1C(=O)[C@@H](NC(=O)OCCOC)C1Cc3ccccc3C1)C2(C)C)C(=O)C(=O)NCC=C` (some centres unmarked), the Ki lay in the range of 101 to 1000 nM.

For `C=CCCC(NC(=O)[C@@H]1[C@@H]2[C@H](CN1C(=O)[C@@H](NC(=O)NC13CC4CC(CC(C4)C1)C3)C1CCCCC1)C2(C)C)C(=O)C(=O)NC/C=C/C(=O)NC(C)(C)C` (some centres unmarked), the Ki was 101 to 1000 nM.

As to `C#CCNC(=O)C(=O)C(CCC=C)NC(=O)[C@@H]1[C@@H]2[C@H](CN1C(=O)[C@@H](NC(=O)NC13CC4CC(CC(C4)C1)C3)C1CCCCC1)C2(C)C` (some centres unmarked), the Ki is 1 to 100 nM.

As for `CCCC(NC(=O)[C@@H]1C2C(CN1C(=O)C(NC(=O)OC(C)(C)C)C1CCCCC1)C2(C)C)C(=O)C(=O)NCC(=O)NC(C)(C)C` (some centres unmarked), the Ki is over 1000 nM.

Regarding `CCCC(NC(=O)[C@@H]1C2C(CN1C(=O)C(NC(=O)OC(C)(C)C)C1CCCCC1)C2(C)C)C(=O)C(=O)NCCC(=O)NC(C)(C)C` (some centres unmarked), the Ki is over 1000 nM.

On to `CCCNC(=O)CCNC(=O)C(=O)C(CCC)NC(=O)[C@@H]1C2C(CN1C(=O)C(NC(=O)OC(C)(C)C)C1CCCCC1)C2(C)C` (some centres unmarked), for which the Ki is over 1000 nM.

With `CCCC(NC(=O)[C@@H]1C2C(CN1C(=O)C(NC(=O)OC(C)(C)C)C1CCCCC1)C2(C)C)C(=O)C(=O)NCCC(=O)OC(C)(C)C` (some centres unmarked), the Ki was over 1000 nM.

In the case of `CCCC(NC(=O)[C@@H]1C2C(CN1C(=O)[C@@H](NC(=O)OC(C)(C)C)C1CCCCC1)C2(C)C)C(=O)C(=O)NCCC1=CCCCC1` (some centres unmarked), the Ki was over 1000 nM.

For the compound `CCCC(NC(=O)[C@@H]1[C@H]2[C@@H](CN1C(=O)[C@@H](NC(=O)OC(C)(C)C)C1CCCCC1)C2(C)C)C(=O)C(=O)NCC1[C@H](C=C(C)C)C1(C)C` (some centres unmarked), the Ki is over 1000 nM.

Take `C=CCCC(NC(=O)[C@@H]1[C@@H]2[C@H](CN1C(=O)[C@@H](NC(=O)OC(C)(C)C)C1CCCCC1)C2(Cl)Cl)C(=O)C(=O)NCC=C` (some centres unmarked): the Ki was 1 to 100 nM.

Take `C=CCCNC(=O)C(=O)C(CCC=C)NC(=O)[C@@H]1[C@@H]2[C@H](CN1C(=O)[C@@H](NS(=O)(=O)CC13CCC(CC1=O)C3(C)C)C(C)(C)C)C2(C)C` (some centres unmarked): the Ki lay in the range of 101 to 1000 nM.

In the case of `C=CCCC(NC(=O)[C@@H]1[C@@H]2[C@H](CN1C(=O)[C@@H](NC(=O)OC(C)(C)C)C1CCCCC1)C2(C)C)C(=O)C(=O)NCCCC(=O)OCC` (some centres unmarked), the Ki lay in the range of 101 to 1000 nM.

Turning to `C=CCCNC(=O)C(=O)C(CCC=C)NC(=O)[C@@H]1[C@@H]2[C@H](CN1C(=O)[C@@H](NS(=O)(=O)N(C)C)C(C)(C)C)C2(C)C` (some centres unmarked), the Ki was over 1000 nM.

In the case of `C=CCCC(NC(=O)[C@@H]1[C@@H]2[C@H](CN1C(=O)[C@@H](NC(=O)OC(C)(C)C)C1CCCCC1)C2(C)C)C(=O)C(=O)NCCCC(=O)O` (some centres unmarked), the Ki was over 1000 nM.

For `C=CCNC(=O)C(=O)C(CCC)NC(=O)[C@@H]1CC(c2ccccc2)CN1C(=O)CC1CCCCC1` (some centres unmarked), the Ki is over 1000 nM.

In the case of `C=CCNC(=O)C(=O)C(CCC)NC(=O)[C@@H]1CC(OC(C)(C)C)CN1C(=O)OCC1c2ccccc2-c2ccccc21` (some centres unmarked), the Ki is over 1000 nM.

Turning to `C=CCCNC(=O)C(=O)C(CCC=C)NC(=O)[C@@H]1[C@@H]2CC(C)(C)O[C@@H]2CN1C(=O)[C@@H](NC(=O)OC(C)(C)C)C1CCCCC1` (some centres unmarked), the Ki lay in the range of 101 to 1000 nM.

For `C=CCNC(=O)C(=O)C(CCC)NC(=O)[C@@H]1CC(OC(C)(C)C)CN1C(=O)C(NC(=O)OC(C)(C)C)c1cccc2ccccc12` (some centres unmarked), the Ki is over 1000 nM.

As to `C=CCCC(NC(=O)[C@@H]1[C@H]2[C@@H](CN1C(=O)[C@@H](NC(=O)OCC1CC1)C1Cc3ccccc3C1)C2(C)C)C(=O)C(=O)NCC=C` (some centres unmarked), the Ki lay in the range of 101 to 1000 nM.

Regarding `C=CCCC(NC(=O)[C@@H]1C2C(CN1C(=O)[C@@H](NC(=O)NC(CC)CC)C1Cc3ccccc3C1)C2(C)C)C(=O)C(=O)NCC=C` (some centres unmarked), the Ki was in the range of 101 to 1000 nM.

As for `C=CCNC(=O)C(=O)C(CCC)NC(=O)[C@@H]1C2C(CN1C(=O)[C@@H](NC(=O)NC13CC4CC(CC(C4)C1)C3)C1Cc3ccccc3C1)C2(C)C` (some centres unmarked), the inhibition constant (Ki) was over 1000 nM.

In the case of `C=CCNC(=O)C(=O)C(CCC)NC(=O)[C@@H]1C2C(CN1C(=O)[C@@H](NC(=O)NC1CCCCC1)C1Cc3ccccc3C1)C2(C)C` (some centres unmarked), the Ki fell in the range of 101 to 1000 nM.

With `C=CCNC(=O)C(=O)C(CCC)NC(=O)[C@@H]1C2C(CN1C(=O)[C@@H](NC(=O)NC(C)CC)C1Cc3ccccc3C1)C2(C)C` (some centres unmarked), the Ki was in the range of 101 to 1000 nM.

With `C=CCNC(=O)C(=O)C(CCC)NC(=O)[C@@H]1C2C(CN1C(=O)[C@@H](NC(=O)NC1CCCC1)C1Cc3ccccc3C1)C2(C)C` (some centres unmarked), the Ki was 101 to 1000 nM.

Take `C=CCNC(=O)C(=O)C(CCC)NC(=O)[C@@H]1C2C(CN1C(=O)[C@@H](NC(=O)NC(C)C)C1Cc3ccccc3C1)C2(C)C` (some centres unmarked): the Ki was over 1000 nM.

Regarding `C=CCNC(=O)C(=O)C(CCC)NC(=O)[C@@H]1[C@H]2[C@@H](CN1C(=O)[C@@H](NC(=O)NC(C)C)C1CCCC1)C2(C)C` (some centres unmarked), the inhibition constant Ki was in the range of 101 to 1000 nM.

In the case of `C=CCNC(=O)C(=O)C(CCC)NC(=O)[C@@H]1C2C(CN1C(=O)[C@@H](NC(=O)NC1CCCCC1)C1CCCC1)C2(C)C` (some centres unmarked), the Ki lay in the range of 101 to 1000 nM.

As to `C=CCCC(NC(=O)[C@@H]1C2C(CN1C(=O)[C@@H](NC(=O)NC13CC4CC(CC(C4)C1)C3)C1CCCCC1)C2(C)C)C(=O)C(=O)NCCC(=O)OC(C)(C)C` (some centres unmarked), the Ki was in the range of 1 to 100 nM.

For `CCCC(NC(=O)[C@@H]1C2C(CN1C(=O)C(NC(=O)OC(C)(C)C)C1CCCCC1)C2(C)C)C(=O)C(=O)NCCS(=O)(=O)Nc1ccc(C)cc1` (some centres unmarked), the Ki was 101 to 1000 nM.

As for `CCCC(NC(=O)[C@@H]1C2C(CN1C(=O)C(NC(=O)OC(C)(C)C)C1CCCCC1)C2(C)C)C(=O)C(=O)NCCNC(=O)OC(C)(C)C` (some centres unmarked), the Ki was in the range of 101 to 1000 nM.

For `C=CCCC(NC(=O)[C@@H]1[C@@H]2[C@H](CN1C(=O)C(NC(=O)OC(C)(C)C)C1CCCCC1)C2(Cl)Cl)C(=O)C(=O)NCC=C` (some centres unmarked), the Ki was 101 to 1000 nM.

Turning to `C=CCNC(=O)C(=O)C(CCC)NC(=O)[C@@H]1C2C(CN1C(=O)[C@@H](NC(=O)NC13CC4CC(CC(C4)C1)C3)C1CCCC1)C2(C)C` (some centres unmarked), the inhibition constant Ki was in the range of 101 to 1000 nM.

Consider `C=CCNC(=O)C(=O)C(CCC)NC(=O)[C@@H]1[C@H]2[C@@H](CN1C(=O)[C@@H](NC(=O)NC1CCCC1)C1CCCC1)C2(C)C` (some centres unmarked), for which the Ki lay in the range of 101 to 1000 nM.

`C=CCCC(NC(=O)[C@@H]1C2C(CN1C(=O)[C@@H](NC(=O)OC1CCCCC1)C1Cc3ccccc3C1)C2(C)C)C(=O)C(=O)NCC=C` (some centres unmarked): the Ki lay in the range of 101 to 1000 nM.
